These results are taken from paper PMC4336329 (PLoS ONE, 2015).

Hit rate of the full screen: of about 310,000 compounds, about 14,000 (4.5%) showed an effect of 50% or more. Effects have a minus sign here. Some of the results follow.
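Further: peak tail current of the secondary pulse compared with the same well before compound.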

The test deals with human ether-à-go-go-related gene (hERG) potassium channel (human, UniProt Q12809). Put plainly: primary screen, population patch clamp on CHO cells stably expressing hERG.
human ether-à-go-go-related gene (hERG) potassium channel, sequence (Q12809 whole entry, looked up): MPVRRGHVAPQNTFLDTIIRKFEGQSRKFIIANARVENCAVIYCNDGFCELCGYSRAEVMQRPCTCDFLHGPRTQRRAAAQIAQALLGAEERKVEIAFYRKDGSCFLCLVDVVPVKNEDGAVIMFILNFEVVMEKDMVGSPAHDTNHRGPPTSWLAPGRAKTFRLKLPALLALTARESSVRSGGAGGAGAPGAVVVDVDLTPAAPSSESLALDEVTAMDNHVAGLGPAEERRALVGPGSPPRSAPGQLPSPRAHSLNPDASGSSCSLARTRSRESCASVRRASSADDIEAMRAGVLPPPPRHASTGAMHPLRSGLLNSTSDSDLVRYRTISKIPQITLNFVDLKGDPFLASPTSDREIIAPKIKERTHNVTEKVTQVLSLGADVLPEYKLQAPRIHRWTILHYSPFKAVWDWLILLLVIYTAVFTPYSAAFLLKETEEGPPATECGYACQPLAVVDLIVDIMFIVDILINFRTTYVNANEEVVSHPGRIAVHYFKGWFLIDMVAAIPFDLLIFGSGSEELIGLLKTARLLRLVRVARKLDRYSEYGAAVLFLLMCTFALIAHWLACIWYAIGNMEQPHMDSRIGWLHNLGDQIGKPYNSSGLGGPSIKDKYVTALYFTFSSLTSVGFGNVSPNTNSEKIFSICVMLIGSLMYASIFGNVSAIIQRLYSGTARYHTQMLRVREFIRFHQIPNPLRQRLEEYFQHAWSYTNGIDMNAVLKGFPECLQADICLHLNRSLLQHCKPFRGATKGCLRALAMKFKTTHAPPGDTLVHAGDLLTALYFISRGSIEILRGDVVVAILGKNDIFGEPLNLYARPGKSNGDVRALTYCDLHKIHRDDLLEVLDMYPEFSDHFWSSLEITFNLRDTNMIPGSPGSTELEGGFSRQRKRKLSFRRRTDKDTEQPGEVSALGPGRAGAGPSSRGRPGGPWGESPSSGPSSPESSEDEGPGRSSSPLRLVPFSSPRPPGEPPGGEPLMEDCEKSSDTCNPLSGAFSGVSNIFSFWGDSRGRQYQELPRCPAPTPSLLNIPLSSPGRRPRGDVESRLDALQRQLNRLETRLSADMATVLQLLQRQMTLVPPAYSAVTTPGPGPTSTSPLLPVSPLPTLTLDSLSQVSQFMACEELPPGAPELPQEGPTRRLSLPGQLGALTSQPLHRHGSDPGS
Turning to `Cc1ccc(NC(=O)CSCC(=O)Nc2ccc(N3CCOCC3)c(Cl)c2)cc1`, the “hERG current change (%, negative = inhibition) at 10uM” value is listed as -11.4%.
Consider `CC1CCN(C(=O)c2ccc(COc3ccccc3Cl)o2)CC1`, for which the “hERG current change (%, negative = inhibition) at 10uM” value was -15%.
With `Oc1ccc2ccccc2c1/C=N/Nc1nnc(-c2ncc[nH]2)c2ccccc12` the figure was 18.4%; with `c1ccc(NC(=NCc2ccco2)c2ccccc2)cc1`, -17.6%; with `CCOC(=O)Cc1nnc(NC(=O)c2ccco2)s1`, 1.13%.
For the compound `O=C(COC(=O)/C=C/c1ccccc1[N+](=O)[O-])NCC(F)(F)F`, the “hERG current change (%, negative = inhibition) at 10uM” value was 4.18%.
As for `CCCCCSc1cc(OC)c(CCN)cc1OC.O=C(O)/C=C\C(=O)O`, the “hERG current change (%, negative = inhibition) at 10uM” value is recorded as -35.9%.
With `O=C(Nc1ccc(Cc2ccncc2)cc1)c1ccc(N2CCOCC2)c([N+](=O)[O-])c1`, the “hERG current change (%, negative = inhibition) at 10uM” value was -59.1%.
Turning to `COc1ccc(CCNC(=O)c2c(N)n(CCN3CCOCC3)c3nc4ccccc4nc23)cc1OC`, the “hERG current change (%, negative = inhibition) at 10uM” value was -8.6%.
With `CCOC(=O)/C(=C/c1c[nH]c2ccccc12)NC(C)=O` the figure was -3.03%; with `O=C(Cc1ccccc1)NCC(=O)N1CCN(c2ccccc2)CC1`, 5.93%.
Consider `CC(Oc1ccc(Cl)cc1Cl)C(=O)NN=C1CCN(C)CC1` (centres unmarked), for which the “hERG current change (%, negative = inhibition) at 10uM” value is on record as -4.7%.
For `CCC(=O)Nc1ccccc1Oc1ccccc1`, the “hERG current change (%, negative = inhibition) at 10uM” value was 0.62%.
Consider `Cc1cc(C)c(S(=O)(=O)/N=C2\C=C(NS(=O)(=O)c3ccccc3)C(=O)c3ccccc32)c(C)c1`, for which the “hERG current change (%, negative = inhibition) at 10uM” value turned out to be 6.25%.
As to `O=[N+]([O-])c1cccc2nc(-c3ccccc3)c(-c3ccccc3)nc12`, the “hERG current change (%, negative = inhibition) at 10uM” value is on record as -37.8%.
In the case of `O=C1C(=O)N(CCCN2CCOCC2)C(c2ccc([N+](=O)[O-])cc2)/C1=C(/O)c1ccc2c(c1)OCO2` (centres unmarked), the “hERG current change (%, negative = inhibition) at 10uM” value is reported as 6.91%.
On to `COc1ccc(C=O)cc1COc1ccc([N+](=O)[O-])c(C)c1`, for which the “hERG current change (%, negative = inhibition) at 10uM” value is -9.4%.
With `C/C(=N/n1cnnc1)c1cccnc1`, the “hERG current change (%, negative = inhibition) at 10uM” value is recorded as -0.855%.
In the case of `CC(=O)Oc1ccc(C(=O)Nc2ccc3c(c2)OCCO3)cc1`, the “hERG current change (%, negative = inhibition) at 10uM” value was found to be 24%.
Turning to `O=C(Nc1cccnc1)Nc1ccc(F)c(Cl)c1`, the “hERG current change (%, negative = inhibition) at 10uM” value was -36.8%.
Regarding `O=C(Nc1ccccc1C(=O)N1CCCCC1)c1ccccc1C(F)(F)F`, the “hERG current change (%, negative = inhibition) at 10uM” value came to 27.6%.
With `Cc1onc(-c2ccccc2)c1C(=O)NC(=S)NNC(=O)c1ccc(O)cc1O`, the “hERG current change (%, negative = inhibition) at 10uM” value worked out at 18.1%.
On to `COc1ccc2c(c1)c1nc3ccccc3nc1n2CC(=O)OC(C)C`, for which the “hERG current change (%, negative = inhibition) at 10uM” value was determined as 23.5%.
Take `Cc1ccc(Oc2ccc3c(c2)C(=O)N(c2ccc(S(=O)(=O)Nc4nccs4)cc2)C3=O)cc1`: the “hERG current change (%, negative = inhibition) at 10uM” value is recorded as -4.83%.
With `C#CCOCCOCCOCCNc1nc(N2CCN(C(=O)Cn3cc(CCCC[NH3+])nn3)CC2)nc(N2CCN(C(=O)Cn3cc(CCC[NH+]=C(N)N)nn3)CC2)n1.[Cl-]` the figure was 14.8%; with `Cc1ccc(-c2cc3nn(-c4ccccc4)c(N)c3c(=O)o2)cc1`, 2.67%.
With `O=C(CSc1nc2ccccc2n1S(=O)(=O)c1ccccc1)N1CCCCC1` the figure was -0.857%; with `Cc1ccc(/C=C2/SC(=S)N(CC(=O)Nc3ncc(Cc4ccc(C)cc4)s3)C2=O)cc1`, -4.84%; with `CCOC(=O)c1ccccc1NC(=O)CN(c1ccccc1)S(=O)(=O)N(C)C`, -19.9%.
As to `CCN(CC)S(=O)(=O)c1cccc(-c2n[nH]c(=S)n2/N=C/c2ccc(C(=O)OC)cc2)c1`, the “hERG current change (%, negative = inhibition) at 10uM” value is recorded as -34%.
The value for `CCOC(=O)c1ccc(Oc2cc(C)nc(Cl)n2)cc1` was -17%; that for `CN(C)C(=O)C1Cc2ccccc2CN1S(=O)(=O)c1cccs1` (centres unmarked) was -13.1%.
Regarding `COc1ccc(Br)cc1C(=O)NC(=S)Nc1ccc2[nH]c(=O)[nH]c2c1`, the “hERG current change (%, negative = inhibition) at 10uM” value amounted to 15.8%.
As to `CS(=O)(=O)N1CCC(C(=O)NCCc2ccccc2)CC1`, the “hERG current change (%, negative = inhibition) at 10uM” value was -3.47%.
With `CCCC(c1nnnn1CS(=O)(=O)c1ccc(C)cc1)N1CCN(C2CCCC2)CC1.Cl` (centres unmarked), the “hERG current change (%, negative = inhibition) at 10uM” value is -37.5%.
Take `CCOc1ccc(-n2c(=O)c3c4c(sc3n(CC(=O)NCCCOC)c2=O)CCCCC4)cc1`: the “hERG current change (%, negative = inhibition) at 10uM” value is -1.22%.
Turning to `c1ccc2sc(C3CCNCC3)nc2c1`, the “hERG current change (%, negative = inhibition) at 10uM” value is -2.73%.
The value for `O=P(Cc1nnco1)(c1ccccc1)c1ccccc1` was 5.87%.
The value for `O=C(COc1ccc(-c2nnco2)cc1)Nc1c(F)cccc1F` was 0.851%; that for `OCCn1c(Cl)nc2ccccc21` was 10.2%; that for `CN(CC(=O)Nc1ccc(F)cc1)C(=O)COc1ncnc2ccccc12` was -19.3%.
In the case of `COC(=O)C[C@H]1c2cc(C(F)(F)F)ccc2S(=O)(=O)N1C1CCCC1`, the “hERG current change (%, negative = inhibition) at 10uM” value is -25.9%.
Take `Cc1c(C#N)c2ccccc2n1CCOc1ccccc1F`: the “hERG current change (%, negative = inhibition) at 10uM” value is listed as 2.19%.
`c1cc2c(cc1CCNC1C3CC4CC(C3)CC1C4)OCO2` (centres unmarked): the “hERG current change (%, negative = inhibition) at 10uM” value is given as -2.3%.
Consider `O=C(O)CCc1nc(-c2ccccc2)c(-c2ccccc2)o1`, for which the “hERG current change (%, negative = inhibition) at 10uM” value was -7.49%.
For `CSc1ccc(CCNC(=O)Cn2ncc3c([nH]c4ccccc43)c2=O)cc1`, the “hERG current change (%, negative = inhibition) at 10uM” value is listed as 23.5%.
For the compound `COc1ccc(CCNC(=O)C2CCCN2S(=O)(=O)c2ccc(F)cc2)cc1OC` (centres unmarked), the “hERG current change (%, negative = inhibition) at 10uM” value is on record as 2.54%.
As to `CCOC(=O)CNC(=O)c1ccc(Cl)s1`, the “hERG current change (%, negative = inhibition) at 10uM” value was determined as 17.9%.
On to `CC(=O)c1cc2ccccc2oc1=O`, for which the “hERG current change (%, negative = inhibition) at 10uM” value was determined as 2.96%.
The value for `O=C(CCCNC(=O)c1ccc(Cl)cc1)Nc1ncccc1O` was 2.65%.
In the case of `COc1ccc(OCCc2nnc(N)s2)cc1`, the “hERG current change (%, negative = inhibition) at 10uM” value was -7.08%.
As for `CC(=O)c1ccc(N2CCN(C(=O)c3cc4c(C)nc5ccccc5c4o3)CC2)cc1`, the “hERG current change (%, negative = inhibition) at 10uM” value is recorded as -9.16%.
With `Cc1cccc(N2CCN(S(C)(=O)=O)CC2)c1C`, the “hERG current change (%, negative = inhibition) at 10uM” value came out at 13.8%.
For the compound `Cc1cccc(N(CC(=O)NCCSc2ccccn2)S(=O)(=O)c2ccccc2)c1`, the “hERG current change (%, negative = inhibition) at 10uM” value is -18.1%.
With `CCN(C(=O)c1coc(=O)c2ccccc12)c1cc(OC)ccc1OC` the figure was -0.0646%.
Take `Cc1n[nH]c(=S)n1/N=C/c1ccc(OCc2ccc(Cl)cc2)cc1`: the “hERG current change (%, negative = inhibition) at 10uM” value came out at 3.46%.
